Binding signal data for 31 molecules are collected here from publication PMC9911399, “Two distinct binding modes provide the RNA-binding protein RbFox with extraordinary sequence specificity”.

Positions count from the first letter of the chain named. Some of the results follow.

Sequences and labels used below:
B1: AUUGAUG (DNA:RNA)
RNA: GGGAGACCGGAAUUCAGAUUGUCCAUUGAUGUUAAAUCCCGUCGUAGCCACCA
DNA 1: CAATCTGAATTCCGGTCTCCC
DNA 2: TGGTGGCTACGACGGGATT
B2: ACGGCCC (DNA:RNA)
RNA: B1 RNA with U26C, U27G, A29C, U30C, G31C
DNA 1: CAATCTGAATTCCGGTCTCCC
DNA 2: TGGTGGCTACGACGGGATT
B3: UUGCAAA (DNA:RNA)
RNA: B1 RNA with A25U, U27G, G28C, U30A, G31A
DNA 1: CAATCTGAATTCCGGTCTCCC
DNA 2: TGGTGGCTACGACGGGATT
B4: UGCUAUC (DNA:RNA)
RNA: B1 RNA with A25U, U26G, U27C, G28U, G31C
DNA 1: CAATCTGAATTCCGGTCTCCC
DNA 2: TGGTGGCTACGACGGGATT
B5: UCCGCAA (DNA:RNA)
RNA: B1 RNA with A25U, U26C, U27C, A29C, U30A, G31A
DNA 1: CAATCTGAATTCCGGTCTCCC
DNA 2: TGGTGGCTACGACGGGATT
B6: CUCGAGU (DNA:RNA)
RNA: B1 RNA with A25C, U27C, U30G, G31U
DNA 1: CAATCTGAATTCCGGTCTCCC
DNA 2: TGGTGGCTACGACGGGATT
B7: GCUACAC (DNA:RNA)
RNA: B1 RNA with A25G, U26C, G28A, A29C, U30A, G31C
DNA 1: CAATCTGAATTCCGGTCTCCC
DNA 2: TGGTGGCTACGACGGGATT
B8: CACGGGC (DNA:RNA)
RNA: B1 RNA with A25C, U26A, U27C, A29G, U30G, G31C
DNA 1: CAATCTGAATTCCGGTCTCCC
DNA 2: TGGTGGCTACGACGGGATT
B9: CAAUCAG (DNA:RNA)
RNA: B1 RNA with A25C, U26A, U27A, G28U, A29C, U30A
DNA 1: CAATCTGAATTCCGGTCTCCC
DNA 2: TGGTGGCTACGACGGGATT
B10: GCACUGG (DNA:RNA)
RNA: B1 RNA with A25G, U26C, U27A, G28C, A29U, U30G
DNA 1: CAATCTGAATTCCGGTCTCCC
DNA 2: TGGTGGCTACGACGGGATT
B11: UAGACUU (DNA:RNA)
RNA: B1 RNA with A25U, U26A, U27G, G28A, A29C, G31U
DNA 1: CAATCTGAATTCCGGTCTCCC
DNA 2: TGGTGGCTACGACGGGATT
B12: CUCGUGA (DNA:RNA)
RNA: B1 RNA with A25C, U27C, A29U, U30G, G31A
DNA 1: CAATCTGAATTCCGGTCTCCC
DNA 2: TGGTGGCTACGACGGGATT
B13: CGGAUAG (DNA:RNA)
RNA: B1 RNA with A25C, U26G, U27G, G28A, A29U, U30A
DNA 1: CAATCTGAATTCCGGTCTCCC
DNA 2: TGGTGGCTACGACGGGATT
B14: UGCCCAA (DNA:RNA)
RNA: GGGAGACCGGAAUUCAGAUUGUCCUGCCCAAUUAAAUCCCGUCGUAGCCACCA
DNA 1: CAATCTGAATTCCGGTCTCCC
DNA 2: TGGTGGCTACGACGGGATT
B15: GCGAAUC (DNA:RNA)
RNA: B1 RNA with A25G, U26C, U27G, G28A, G31C
DNA 1: CAATCTGAATTCCGGTCTCCC
DNA 2: TGGTGGCTACGACGGGATT
B16: CCCUUCG (DNA:RNA)
RNA: B1 RNA with A25C, U26C, U27C, G28U, A29U, U30C
DNA 1: CAATCTGAATTCCGGTCTCCC
DNA 2: TGGTGGCTACGACGGGATT
B17: AGACGGG (DNA:RNA)
RNA: B1 RNA with U26G, U27A, G28C, A29G, U30G
DNA 1: CAATCTGAATTCCGGTCTCCC
DNA 2: TGGTGGCTACGACGGGATT
B18: UCUGUGA (DNA:RNA)
RNA: B1 RNA with A25U, U26C, A29U, U30G, G31A
DNA 1: CAATCTGAATTCCGGTCTCCC
DNA 2: TGGTGGCTACGACGGGATT
B19: ACUCCUG (DNA:RNA)
RNA: B1 RNA with U26C, G28C, A29C
DNA 1: CAATCTGAATTCCGGTCTCCC
DNA 2: TGGTGGCTACGACGGGATT
B20: AGGGGUU (DNA:RNA)
RNA: B1 RNA with U26G, U27G, A29G, G31U
DNA 1: CAATCTGAATTCCGGTCTCCC
DNA 2: TGGTGGCTACGACGGGATT
B21: UACACAG (DNA:RNA)
RNA: B14 RNA with G26A, C28A, A31G
DNA 1: CAATCTGAATTCCGGTCTCCC
DNA 2: TGGTGGCTACGACGGGATT
B22: UGUAUAG (DNA:RNA)
RNA: B14 RNA with C27U, C28A, C29U, A31G
DNA 1: CAATCTGAATTCCGGTCTCCC
DNA 2: TGGTGGCTACGACGGGATT
B23: AUUGCGU (DNA:RNA)
RNA: B1 RNA with A29C, U30G, G31U
DNA 1: CAATCTGAATTCCGGTCTCCC
DNA 2: TGGTGGCTACGACGGGATT
B24: CUCCUCA (DNA:RNA)
RNA: B14 RNA with U25C, G26U, C29U, A30C
DNA 1: CAATCTGAATTCCGGTCTCCC
DNA 2: TGGTGGCTACGACGGGATT
B25: UGGGUAC (DNA:RNA)
RNA: B14 RNA with C27G, C28G, C29U, A31C
DNA 1: CAATCTGAATTCCGGTCTCCC
DNA 2: TGGTGGCTACGACGGGATT
B26: CAAAAGA (DNA:RNA)
RNA: B1 RNA with A25C, U26A, U27A, G28A, U30G, G31A
DNA 1: CAATCTGAATTCCGGTCTCCC
DNA 2: TGGTGGCTACGACGGGATT
B27: ACUACUA (DNA:RNA)
RNA: B1 RNA with U26C, G28A, A29C, G31A
DNA 1: CAATCTGAATTCCGGTCTCCC
DNA 2: TGGTGGCTACGACGGGATT
B28: CUGCAGA (DNA:RNA)
RNA: B1 RNA with A25C, U27G, G28C, U30G, G31A
DNA 1: CAATCTGAATTCCGGTCTCCC
DNA 2: TGGTGGCTACGACGGGATT
B29: CUUCUUC (DNA:RNA)
RNA: B1 RNA with A25C, G28C, A29U, G31C
DNA 1: CAATCTGAATTCCGGTCTCCC
DNA 2: TGGTGGCTACGACGGGATT
B30: GUGCCGC (DNA:RNA)
RNA: B14 RNA with U25G, G26U, C27G, A30G, A31C
DNA 1: CAATCTGAATTCCGGTCTCCC
DNA 2: TGGTGGCTACGACGGGATT
B31: AACCCUU (DNA:RNA)
RNA: B14 RNA with U25A, G26A, A30U, A31U
DNA 1: CAATCTGAATTCCGGTCTCCC
DNA 2: TGGTGGCTACGACGGGATT

This test concerns the target T1, RBFOX1 RRM RbFoxmut (Fox-RRM*) (Homo sapiens, UniProt Q9NWB1 109-208, R118D;E147R;N151S;E152T).
T1 sequence: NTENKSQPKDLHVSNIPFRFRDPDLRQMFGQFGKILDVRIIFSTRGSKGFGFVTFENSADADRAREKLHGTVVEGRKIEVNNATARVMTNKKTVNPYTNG
The experiment in a line: EMSA; HiTS-Eq, 1 nM pool, 10 min; buffer printed only for the single-RNA assays: 10 mM Tris pH 7.5, 150 mM NaCl, 3.4 mM EDTA, 0.001% NP-40, 30 C. The conditions noted are these: tags: His6 N-terminal (pET28a); label: 5' 32P. In short, it runs like this: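 Relative association constants, normalised to the cognate motif, were derived by comparing read counts of each RNA species with those of the control reaction. The RNA sequenced was the free fraction, separated by 8% native PAGE after a 10 min equilibration in 50 µL of 1 nM 5′-radiolabelled RNA (7 randomized nucleotides) with increasing concentrations of purified wild-type or mutant RbFox RRM.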
Regarding B1, the binding signal was 0.12 KA relative to UGCAUGU.
The figure for B2 is 0.0655 KA relative to UGCAUGU; for B3 it is 0.0864 KA relative to UGCAUGU; for B4 it is 0.255 KA relative to UGCAUGU.
The figure for B5 is 0.0878 KA relative to UGCAUGU; for B6 it is 0.121 KA relative to UGCAUGU; for B7 it is 0.121 KA relative to UGCAUGU.
The figure for B8 is 0.09 KA relative to UGCAUGU; for B9 it is 0.0574 KA relative to UGCAUGU; for B10 it is 0.0976 KA relative to UGCAUGU.
B11: the binding signal was 0.0552 KA relative to UGCAUGU.
In the case of B12 it was 0.125 KA relative to UGCAUGU; in that of B13, 0.0992 KA relative to UGCAUGU; in that of B14, 0.0646 KA relative to UGCAUGU.
The figure for B15 is 0.385 KA relative to UGCAUGU.
As for B16, the binding signal was 0.092 KA relative to UGCAUGU.
On to B17, for which the binding signal was 0.103 KA relative to UGCAUGU.
For B18, the binding signal was 0.104 KA relative to UGCAUGU.
Regarding B19, the binding signal was 0.0708 KA relative to UGCAUGU.
Regarding B20, the binding signal is 0.0984 KA relative to UGCAUGU.
In the case of B21, the binding signal is 0.0626 KA relative to UGCAUGU.
In the case of B22 it was 0.138 KA relative to UGCAUGU; in that of B23, 0.16 KA relative to UGCAUGU; in that of B24, 0.0817 KA relative to UGCAUGU.
The figure for B25 is 0.112 KA relative to UGCAUGU; for B26 it is 0.0824 KA relative to UGCAUGU.
In the case of B27 it was 0.152 KA relative to UGCAUGU; in that of B28, 0.136 KA relative to UGCAUGU.
Consider B29, for which the binding signal was 0.0471 KA relative to UGCAUGU.
In the case of B30 it was 0.101 KA relative to UGCAUGU; in that of B31, 0.0783 KA relative to UGCAUGU.
